# Test results published in the BET-seq Pho4 binding data (Le et al. 2018).
# The list shows a part of the results. These are noisy estimates, calculated here from bound and input reads.
# Target: T1, Pho4 (S. cerevisiae) (UniProt P07270)
# T1 sequence: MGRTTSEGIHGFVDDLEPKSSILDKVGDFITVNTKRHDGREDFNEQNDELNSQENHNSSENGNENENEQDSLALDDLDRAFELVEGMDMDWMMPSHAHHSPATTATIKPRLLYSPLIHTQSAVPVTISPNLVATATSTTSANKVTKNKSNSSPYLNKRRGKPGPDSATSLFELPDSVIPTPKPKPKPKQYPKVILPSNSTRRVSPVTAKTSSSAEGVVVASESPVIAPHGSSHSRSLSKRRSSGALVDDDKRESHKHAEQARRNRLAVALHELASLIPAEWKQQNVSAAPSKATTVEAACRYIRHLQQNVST
# Experiment: relative binding free energy (BET-seq); higher = weaker binding
# Details: reference: library average
row,Sequence,relative binding free energy [kcal/mol]
1,TGCGTCACGTGGTGAG,0.04
2,TTCAGCACGTGGTGCT,-0.14
3,TTTGTCACGTGTTCGG,0.13
4,ATCTGCACGTGGGATT,-0.09
5,ATTGGCACGTGAGTTA,0.11
6,CGGTACACGTGATTGG,0.08
7,TGCTTCACGTGTGATA,0.28
8,ATCTGCACGTGAGTTT,0.14
9,TTGGGCACGTGGCCGG,-0.27
10,GGTAGCACGTGTTAGT,0.05
11,GGTTACACGTGTAAAG,0.19
12,AATTACACGTGGGGCG,-0.02
13,GGAGTCACGTGTTCTG,0.13
14,GGTAACACGTGTGTGC,0.12
15,GGGGACACGTGAGGGG,0.17
16,TTAGGCACGTGTAGGT,-0.04
17,GGGTGCACGTGTAATA,0.17
18,GTCATCACGTGGTAGA,0.24
19,TATCACACGTGAGGTG,0.21
20,AATTGCACGTGCTAGG,0.01
21,GGTAGCACGTGTGCGT,0
22,GGAATCACGTGTGGTC,0.38
23,TTTCGCACGTGTTGTA,-0.02

row,Sequence,relative binding free energy [kcal/mol]
1,TGTTTCACGTGGTTTT,0.19
2,TGTAACACGTGTTGTC,-0.06
3,TGGGTCACGTGCGGTA,0.1
4,GTTTTCACGTGCTGGG,0.31
5,CAAGTCACGTGGAGGG,0.02
6,CTTTACACGTGTGGTT,0.27
7,AGTGGCACGTGGCCTG,-0.15
8,AGGTGCACGTGCCTGT,-0.11
9,TGCGCCACGTGGTTTT,-0.12
10,GGGAACACGTGGGTTG,-0.07
11,ATCGTCACGTGTTAAT,0.07
12,AAAGTCACGTGAAGGC,0.49
13,CAATTCACGTGTATGG,0.15
14,TTCGGCACGTGTTGTA,-0.01
15,TGTGGCACGTGTAGCT,-0.06
16,GATATCACGTGTGTGA,0.2
17,CTCAGCACGTGGTGTG,-0.2
18,GGTGGCACGTGGTAGG,-0.05
19,TGTGACACGTGTTTGC,0.13
20,ATTTTCACGTGAGGAA,0.36
21,CAGGTCACGTGCTGGT,0
22,GTAGGCACGTGTCGTA,-0.04
23,ATGACCACGTGTAGGT,-0.02

row,Sequence,relative binding free energy [kcal/mol]
1,TAATGCACGTGAGAGG,0.17
2,ATGGTCACGTGCTGCT,0.09
3,CATGGCACGTGTGTAG,0
4,CATGTCACGTGCGTGT,-0.13
5,ATTTACACGTGTAAGA,0.14
6,TAGGACACGTGGTCGG,-0.05
7,TTTATCACGTGAGTTT,0.37
8,TGTAGCACGTGATAAT,0
9,TATGTCACGTGGCGAT,0.14
10,CGTAGCACGTGGGGAG,-0.25
11,CTGTACACGTGGGTTA,0.03
12,TCTTTCACGTGTTAGG,0.35
13,AGCAGCACGTGAGTGT,0.2
14,AGCTGCACGTGGGTAA,-0.2
15,GGGGACACGTGCTGTG,-0.1
16,TGTTTCACGTGACTGT,0.47
17,GGCTACACGTGTGAGT,0.29
18,GAGCACACGTGTGGGA,0.25
19,ACGTGCACGTGGGTGT,-0.24
20,TTGGACACGTGGGTAG,-0.15
21,TGTAGCACGTGTTGAT,-0.03
22,ATGGGCACGTGGAAGA,-0.1
23,TTGGACACGTGTGGAG,0.08

row,Sequence,relative binding free energy [kcal/mol]
1,GGCGCCACGTGGTTGT,-0.16
2,ATAACCACGTGGGGGT,-0.33
3,ACTTGCACGTGGATTG,0.04
4,TGCATCACGTGGAGTG,-0.03
5,TAGCGCACGTGGAATG,-0.08
6,CGGTTCACGTGAGCTG,0.42
7,GGGCGCACGTGTGTGT,-0.13
8,AATATCACGTGTAGGG,0.11
9,GGATACACGTGATTGG,0.23
10,TGGTCCACGTGGGTCT,-0.1
11,GGTACCACGTGGTGGT,-0.18
12,TTGAACACGTGTGGGA,0.22
13,ATTGGCACGTGATCTG,0.01
14,CGTATCACGTGTGTCT,0.12
15,TGAGACACGTGGCGGG,-0.06
16,TTTTCCACGTGGTGAG,0.08
17,TCATGCACGTGAGTGT,0.16
18,TGGTGCACGTGGGTCG,-0.14
19,GGGGGCACGTGGGTTG,-0.24
20,GAGTTCACGTGTTGTA,0.33
21,CGTGTCACGTGGTTAC,0.02
22,TAAGTCACGTGTCATG,0
23,TATGGCACGTGGTGAC,-0.08

row,Sequence,relative binding free energy [kcal/mol]
1,GGCGTCACGTGAGAGG,0.27
2,AAGAGCACGTGAGGTG,0.09
3,TGTTACACGTGAAACG,0.41
4,AGTTTCACGTGCTTTT,0.13
5,CAGGTCACGTGGTGAA,0.16
6,ATGTACACGTGAGTAG,0.29
7,GGGGGCACGTGTATGT,-0.05
8,TTTCTCACGTGGCTGG,0.11
9,TTGTCCACGTGGGGAA,-0.03
10,AGTTGCACGTGATTTC,0.07
11,TGTAGCACGTGGATTA,-0.07
12,TATTTCACGTGACGCG,0.38
13,TGAGACACGTGTAGGG,0.07
14,GTCAACACGTGGTTGG,-0.01
15,TTATTCACGTGTAGCA,0.2
16,TTTAACACGTGATCAG,0.22
17,GTTCACACGTGCGTTG,0.06
18,GAGGTCACGTGAGTTA,0.3
19,GCTGACACGTGAGTTG,0.42
20,TTGTTCACGTGCTGCA,0.28
21,ATATTCACGTGTTAGG,0.16
22,TAGGTCACGTGGTAAT,0.14
23,TAAGGCACGTGTATGT,-0.01
